In the RNAGym collection of RNA variant scans (doi:10.7554/elife.90254):
The source gives no read counts; variants with many changes may rest on few reads.

B1: LINE1-full (parent)
chain: UACGUAGGUGGUUUUCCCCUGAUAGUGCUAAGGGGGCCUGGAAGUUUGGACUGGGCAGAGCUCAACACAGCGUGGCAAAGUGGCUGUGGCUAGACUGCCUCUCUGGAUUCCUCGUCACUCAGCAGGGCAUCUCUGAGAGAAAUGCC

Variants of: B1
Experiment: self-cleavage, relative activity (ratio to wild type); higher = more cleavage; in vitro, sequencing; the parent is a self-cleaving ribozyme

Row | Variant | self-cleavage
1 | CACGUAGGUGGUUUUCCCCUGAUAGUGCUAAGGGGGCCAGGAAGUUUGGACUGGGCAUAGCUCAACACAGCGUGGCAAAGUGGCUGUGGCUAGACUGCCUCUCUGGAUUCCUCGUCACUCAGCAGGGCAUCUCUGAGAGAAAUGCC [U1C U39A G58U] | 0.18
2 | UACGUAGGUGGUUUUCCCCUGGUAGUGCUAAGGGGGCCUGGAAGUUUGGACUGGGCAGGGCUCAACGCAGCGUGGCAAAGUGGCUGUGGCUAGACUGCCUCUCUGGAUUCCUCGUCACUCAGCAGGGCAUCUCUGAGAGUAAUGCC [A22G A59G A67G A140U] | 0
3 | UACGUAGGUGGUUUUCCCCUGAUGGUGCUAAGGGGGCCUGGAAGUUUGGACUGGGCAGAGCUCAACACAGCGUGGCAAAGUGGCUGAGGCUAGACCGCCUCUCUGGAUUCCUCGUCACUCAGCAGGGCAUCUCUGAGAGAAAUGCC [A24G U87A U96C] | 0.26
4 | UACGUAGGUGGUUUUACCUUGAUAGUGCUAAGGGGGCCUGGAAGUUUGGACUGGGCAGAGCUCAACACAGCGUGGCAAAGUGGCUGUGGCUAGACUGCCUCUCUGGAUCCCUCGUCACUCAGCAGGGCAUCUCUGAGAGAAAUGCC [C16A C19U U109C] | 0.33
5 | UACGUAGGUGGUUUUCCCCUGAUAGUGCUAAGGGGGCCUGGAAGUUUGGACUGGGCAGAGCUCAACACGGCGUGGCUAAGUGGCUGUGGCUAGACUGCCUCUCUGGAUUCCUCGUCACUCAGCAGGGCAUCUCUGGGAGAAAUGCC [A69G A77U A136G] | 0.32
6 | UACGUAGGUGGUUUUCCCCCGAUAGUGCUAAGGGGGCCUGGAAGUUUGGACUGGGCAGAGCUCAACACGGCGUGGCUAAGUGGCUGUGGCUAGACUGCCUCUCUGGACUCCUCGUCACUCAGCAGGGCAUCUCUGAGAGAAGUGCC [U20C A69G A77U U108C A142G] | 0.64
7 | UACGUAUGUGGUUUUCCCCUGAUAGUGCUAAGGGGGCCUGGAAGUUUGGACUGGGCAGAGCUCAACACAGCGUGGCAAAGUGGCUGUGGCUAGACUGCCUCUCUGGAAUCCUCGUCACUCAGCAGGGCAUCUCUGAGCGAAAUGCC [G7U U108A A138C] | 2.13
8 | UACGUAGGUGGUUUUCCCCUGAUAGUGCUAAGGGGGCCUGGAAGUUUGGACUGGGCAGAGCUCAACACAGCGUGGCAAAGUGGCUGUGGCUAGACUGCCUAUCUGGAUUCCUCGUCGCUCAGCAGGGCAUCUCUGAGAGGAAUGCC [C101A A117G A140G] | 1.53
9 | UACGUCGGUGGUCUUCCCCUGAUAGCGCUAAGGGGGCCUGGAAGUUUGGACUGGGCAGAGCUCAACACAGCGUGGCAAAGUGUCUGUGGCUAGACUGCCUCUCUGGAUUCCCCGUCACUCAGCAGGGCAUCUCUGAGAGAAAUGCC [A6C U13C U26C G83U U112C] | 0
10 | UACGUAGGUGGCUUUCCCCUGAUAGUGCUAAGGGGGCCUGGAAGUUUGGACUGGGCAGAGCUCAACACAGCGUGGCAAAGUGGCUGUGGCUAGACCGCCUCUCUGGAUUCCUCGUCACUCAGCAGGGCAUCUCUGAGAGGAAUGCC [U12C U96C A140G] | 0
11 | UGCGUAGGUGGUUUUCCCCUGAUAGUGCUAAGGGGGCCUGGAAGUUUGGACUGGGCAGAGCCCAACACAGCGAGGCAAAGUGGCUGUGGCUAGACUGCCUCUCUGGAUUCCUAGUCACACAGCAGGGCAUCUCUGAGAGAAAUGCC [A2G U62C U73A C113A U119A] | 0.2
12 | UCCGUAGGUGGUUUUCCCCUGAUAGUGCUAAGGGGGCCCGGAAGUUUGGACUGGGCAGAGCUCAACACAGUGUGGCAAAGUGGCUGUGGCUAGACUGCCUCUCUGGAUUCCUCGUCACUCAGCAGGGCAUCCCUGAGAGAAACGCC [A2C U39C C71U U132C U143C] | 0.4
13 | UACGUAGGUGGUUUUCCCCUGAAAGUGCUAAGGGGGCCUGGAAGUUUGGACUGGGCGGAGCUCAACACAGCAUGGCAAUGUGGCUGUGGCUAGACUGCCUCUCUGGAUUCCUCGUCACUCAGCAGGGCAUCUCUGAGGGAAAUGCC [U23A A57G G72A A79U A138G] | 1.66
14 | UACGUAGGUGGUUUUCCCCUGAUAGUGCUAAGGGGGCCUGGAGGUUUGGACUGGGCAGAGCUCAACACAGCGUGGCAAAGUGGCUGUGGCUAGACUGCCUCUCUGGAUUCCCCGUCACUCAGCAGGGCAUCUCUGUGAGAAAUGCC [A43G U112C A136U] | 0.79
15 | UACGUAGGUGGUUUUCCUCUGAUAGUGCUAAGGGGGCCUGGAAGUUUGAACUGGGCAGAGCUCAACACAGCGUGGCAAAGUGGCUGUGGCUAGACUGCCUCUCUGGAUUCCUCGUCACUCAGCAGGGCAUCUCUGAGAGAAAUGCU [C18U G49A C146U] | 1.07
16 | UACGUAGGUGGUUAUCCCUUGAUGGUGCUAAGGGGGCCUGGAAGUUUGGACUGGGCAGAGCUCAACACAGCGUGGCCAAGUGGCUGUGGCUAGACUGCCUCUCUGGAUUCCUCGUCACUCAGCAGGGCAUCUCUGAGAGAAAUGCC [U14A C19U A24G A77C] | 0.27
17 | UACGUAGGUGGUUUUCCCCUGAUAGUGCUAAGGGGGCCUGGGAGUUUGGACUGGGCAGAGCUCAACACAGCGUGGCAAAGUGGCUGUGGCUAGACUGCCUCUCUGGAUUCCUCGUCACUCGGCAGGGCUUCUCUGAGAGAAAUGCC [A42G A121G A129U] | 1.19
18 | UACGUAGGUGGUUUUCCCCUGAUAGUGCUAAGGGGGCCUGGAAGUUUGGACUGGGCUGAGCUCAACACAGCGUGGCAAAGAGGCUGUGGCCAGACUGCCUCUCUGGAUUCCUCGUCACUCAGCAGGGCAUCUCUGAGAGAAAUGCC [A57U U81A U91C] | 0.09
19 | UACGUAGGUGGUUUUCCCCUGAUAGUGCUAAGGGGGCCUGGAAGUUUGGACUGGGCAGAGCUCAACACAGCGUGGCGAAGUGGCUGUGGCUAGGCUGCCUCUCUGGAUUCCUCGUCACUCAGCAGGUCAUCUCUGAGAGAAAUGCC [A77G A94G G127U] | 0.39
20 | UACGUAGGUGGUUUUCCCCUGAUAGUGCUAAGGGGGCCUGGAAGUUUGGACUGUGCAGAGCUCAACACAGCGUGGCAAAAUGGCUGCGGCUAGUCUGCCUCUCUGGAUUCCUCGUCGCUCAGCAGGGCAUCUCUGAGAGAAAUGCC [G54U G80A U87C A94U A117G] | 0.09
